The campaign covered roughly 110,000 compounds. About 230 (0.21%) showed an effect of 50% or more. Some of the results follow.
Molecular target: DPAP1 (Plasmodium falciparum, UniProt Q8IIJ9)
Assay: primary screen, percent inhibition; read by cleavage of a fluorogenic dipeptide substrate; higher = more effect of the substance
Parameters: species or system P. falciparum D10 trophozoite lysates; single well
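Note: 30 min substrate incubation versus DMSO and 10 µM JCP410 controls.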

DPAP1, sequence (Q8IIJ9 whole entry, looked up): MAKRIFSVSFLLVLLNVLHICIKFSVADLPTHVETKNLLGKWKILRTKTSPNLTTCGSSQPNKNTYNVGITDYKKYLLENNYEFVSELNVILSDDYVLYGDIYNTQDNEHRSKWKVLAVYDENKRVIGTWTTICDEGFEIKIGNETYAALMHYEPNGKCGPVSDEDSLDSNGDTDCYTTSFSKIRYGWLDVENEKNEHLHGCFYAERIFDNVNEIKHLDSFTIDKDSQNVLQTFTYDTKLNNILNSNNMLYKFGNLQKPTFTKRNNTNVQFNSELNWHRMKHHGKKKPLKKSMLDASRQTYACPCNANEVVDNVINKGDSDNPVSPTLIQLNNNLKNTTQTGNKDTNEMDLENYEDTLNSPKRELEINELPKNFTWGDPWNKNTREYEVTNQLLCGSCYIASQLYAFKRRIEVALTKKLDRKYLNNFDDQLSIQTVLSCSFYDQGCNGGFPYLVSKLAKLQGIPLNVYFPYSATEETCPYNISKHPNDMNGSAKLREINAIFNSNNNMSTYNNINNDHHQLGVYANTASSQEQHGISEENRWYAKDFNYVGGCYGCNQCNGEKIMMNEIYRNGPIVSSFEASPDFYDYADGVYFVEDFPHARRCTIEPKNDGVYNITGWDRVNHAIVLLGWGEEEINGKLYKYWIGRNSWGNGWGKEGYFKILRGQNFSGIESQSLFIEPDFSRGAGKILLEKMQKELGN

SMILES	% Inhibition @ 10 uM [%]
COC(=O)c1sc(NC(=O)c2cc(Cl)ccc2OC)c(C#N)c1C	22.4
CCN1CCc2c(sc(-n3cccc3)c2C(CCC(C)C)NC(=O)NCCCOC)C1 (stereo not shown)	-5.59
CN(C)C(=O)CSc1nc2ccc(N3C(=O)c4ccccc4C3=O)cc2s1	-1.84
CCOC(=O)/C(C(=N)C(F)(F)F)=C(\O)OCC	4.84
CCC(C)[C@@H](C(=O)NCc1ccccc1C)N1Cc2ccccc2C1=O (stereo partly shown)	2.93
COc1cccc(O[C@@H]2O[C@@H]3COC(C)(C)O[C@H]3[C@H](O)[C@H]2NC(C)=O)c1	4.67
CC(C)N(Cc1nc(-c2ccc(Cl)cc2)no1)C(=O)CCc1ccccc1	-0.646
COc1cc(C2C3=C(O)CCCC3=NC(C)=C2C(=O)Nc2c(F)cccc2F)cc(OC)c1OC (stereo not shown)	-5.58
COc1ccc(C(=O)NC2CCCCCC2)cc1	0.147
CC1(C)CC(=O)c2c(-c3cccnc3)n[nH]c2C1	-3.63
c1nc(N2CCCC3CCCCC32)c2nc[nH]c2n1 (stereo not shown)	1.9
COc1ccc(C(=O)Nc2ccc(F)cc2F)cc1	1.04
CNS(=O)(=O)c1cn(CC(=O)NC2CCN(Cc3ccccc3)CC2)cc1S(=O)(=O)NC	-0.165
CCCCNC(=O)c1cc2c(Cl)nc3ccccc3c2s1	3.88
CC(C)Oc1cccc(-c2cc(C(=O)N3CCOCC3)c3ccccc3n2)c1	13
Cc1ccc(NS(=O)(=O)c2ccc(NC(=O)COc3ccccc3)cc2)c(C)c1	-4.7
Cc1cc(=O)oc2c3c(ccc12)OCN(Cc1ccc2c(c1)OCO2)C3	10.2
CCN(CC)/C(C)=N/C(=O)NC(c1ccc(C)cc1)C(Cl)(Cl)Cl (stereo not shown)	1.03
CCN(CC)CCCNc1oc(/C=C/c2cccs2)nc1C#N	-3.49
O=C(CSc1nnc(O)nc1O)OCc1ccccc1	6.19
CCOC(=O)c1cc(S(=O)(=O)N(CCc2ccccc2)Cc2ccccc2)cn1C	-6.59
Cc1ccc2oc(=O)c3cc(C(=O)N(CCN(C)C)Cc4ccccc4)sc3c2c1	-3.06
Cc1nccn1S(=O)(=O)c1ccc2ccccc2c1	-4.21
CC1CC(=O)C2=C(C1)OC(N)=C(C#N)C2c1ccoc1 (stereo not shown)	-1.38
O=C1c2ccccc2C(O)N1Cc1ccccc1Cl (stereo not shown)	-1.03

SMILES	% Inhibition @ 10 uM [%]
CN1C(=O)CC(C(=O)Nc2ccc(C(=O)O)cc2)S/C1=N\c1cccc(Cl)c1 (stereo not shown)	1.31
Cc1cccc(OCCc2c(C)n[nH]c2C)c1C	1.63
CCCc1nn(-c2ccc(F)cc2)c(O)c1/C=N/Cc1ccc(Cl)cc1	-2.83
COc1ccc(-c2cc(C(=O)N3CCCC3)c3ccccc3n2)cc1	2.9
CCCn1c(=N)n(CC(=O)c2ccco2)c2ccccc21	3.44
COc1ccc(-c2cc(C(F)(F)F)n3nc(C(=O)Nc4cccnc4Cl)cc3n2)cc1	-3.89
Cc1cc(C)n(-c2cccc3cccnc23)n1	-1.69
CC(=O)N1C(=S)NC(=O)/C1=C\c1cccnc1	-6.02
CC1=Nc2nnnn2C(c2ccccc2)/C1=C(\O)OCc1ccccc1 (stereo not shown)	-4.1
Cc1ccccc1Cc1c(C)nc2c(C(=O)NC3CCCC(C)C3C)cnn2c1C (stereo not shown)	7.47
COCc1cc(C)nc(N2CCN(Cc3ccccc3)CC2)c1C#N	-1.32
CC(C)(C)C(=O)Nc1ccc(S(=O)(=O)Nc2cnc3ccccc3n2)cc1	-4.22
CCCNC(=O)c1ccc(N(C)S(=O)(=O)c2ccccc2)cc1	-2.28
CCOC(=O)c1c(C)[nH]c(C)c1S(=O)(=O)N(C)CC(=O)Nc1cccc(C)n1	-0.695
O=C(N1CC2CC(C1)c1cccc(=O)n1C2)n1ccnc1 (stereo not shown)	0.0198
CCOc1cccc(/C=C2\S/C(=N/c3ccc(OC)cc3)N(CC)C2=O)c1O	-5.35
COc1ccc2c(c1)c1nc3n(c(=O)c1n2CC(=O)Nc1cc(C)[nH]n1)CCS3	-10
CCc1ccc(C2=C/C(=C/c3ccc(C)c(OC)c3)C(=O)O2)cc1	-3.74
CC(=O)Nc1ccc(Nc2nc(-c3ccccc3)nc3ccccc23)cc1	-0.992
CC(C)c1nnc(NC(=O)/C=C/c2ccccc2)s1	10.8
CCOCCCNC(=O)C1CCCN(S(=O)(=O)N2CCN(C(=O)OCC)CC2)C1 (stereo not shown)	2.05
CCOc1ccccc1C(=O)Nc1ccc(C(C)C)cc1	-1.07
CCCCN(C)Cc1cc(Br)c(O)c(OC)c1	-1.86
O=C(CN(Cc1ccc(Cl)cc1)S(=O)(=O)c1ccccc1)N1CCCCCC1	-1.26
